Test results reported in the supplement of paper PMC4996465.
Viability of KB3-1 and Nalm-6 cells after 48 h of drug alone (CellTiter-Glo), 11 doses over about 4.5 log units. % of DMSO wells, lower = more cell loss; AC50 from the fitted curve, lower = more potent. No active / inactive call. Nalm-6 was screened in two runs. AC50 is listed only for well-fitted inhibitory curves. KB3-1 is a HeLa-derived carcinoma line, Nalm-6 a B-cell precursor leukaemia line.

Assays:
Nalm-6 = assay: viability (% of DMSO control); higher = more viable cells
Experimental: (§1)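 Eleven-dose screen of the NCATS MIPE 3 library on cells without co-treatment; CellTiter-Glo after 48 h, as % of DMSO wells.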

KB3-1 = assay: as above
Experimental: as §1

CCCCCCCCCCCCCCCCCCOP(=O)([O-])OC1CC[N+](C)(C)CC1 [Perifosine]
Details | viability [%]
KB3-1, 0.00039 µM | 104
KB3-1, 0.00117 µM | 102
KB3-1, 0.00351 µM | 105
KB3-1, 0.0105 µM | 110
KB3-1, 0.0316 µM | 106
KB3-1, 0.0948 µM | 107
KB3-1, 0.284 µM | 106
KB3-1, 0.853 µM | 101
KB3-1, 2.56 µM | 101
KB3-1, 7.68 µM | 99.2
KB3-1, 23 µM | 98.3
Nalm-6, run: 1, 0.00039 µM | 122
Nalm-6, run: 1, 0.00117 µM | 114
Nalm-6, run: 1, 0.00351 µM | 124
Nalm-6, run: 1, 0.0105 µM | 128
Nalm-6, run: 1, 0.0316 µM | 122
Nalm-6, run: 1, 0.0948 µM | 118
Nalm-6, run: 1, 0.284 µM | 113
Nalm-6, run: 1, 0.853 µM | 124
Nalm-6, run: 1, 2.56 µM | 110
Nalm-6, run: 1, 7.68 µM | 112
Nalm-6, run: 1, 23 µM | 104
Nalm-6, run: 2, 0.00039 µM | 110
Nalm-6, run: 2, 0.00117 µM | 108
Nalm-6, run: 2, 0.00351 µM | 111
Nalm-6, run: 2, 0.0105 µM | 109
Nalm-6, run: 2, 0.0316 µM | 108
Nalm-6, run: 2, 0.0948 µM | 107
Nalm-6, run: 2, 0.284 µM | 107
Nalm-6, run: 2, 0.853 µM | 105
Nalm-6, run: 2, 2.56 µM | 103
Nalm-6, run: 2, 7.68 µM | 99.6
Nalm-6, run: 2, 23 µM | 91.9

COCCNCCCn1c(C(=O)CF)c(-c2ccc(C)cc2)c2c(N)ncnc21 [FMK-MEA]
Details | viability [%]
KB3-1, 0.00078 µM | 94.6
KB3-1, 0.00234 µM | 100
KB3-1, 0.00702 µM | 103
KB3-1, 0.0211 µM | 103
KB3-1, 0.0632 µM | 106
KB3-1, 0.19 µM | 103
KB3-1, 0.569 µM | 103
KB3-1, 1.71 µM | 106
KB3-1, 5.12 µM | 98.7
KB3-1, 15.4 µM | 104
KB3-1, 46.1 µM | 90.1
Nalm-6, run: 1, 0.00078 µM | 108
Nalm-6, run: 1, 0.00234 µM | 115
Nalm-6, run: 1, 0.00702 µM | 117
Nalm-6, run: 1, 0.0211 µM | 116
Nalm-6, run: 1, 0.0632 µM | 118
Nalm-6, run: 1, 0.19 µM | 114
Nalm-6, run: 1, 0.569 µM | 102
Nalm-6, run: 1, 1.71 µM | 109
Nalm-6, run: 1, 5.12 µM | 103
Nalm-6, run: 1, 15.4 µM | 94.9
Nalm-6, run: 1, 46.1 µM | 93.2
Nalm-6, run: 2, 0.00078 µM | 104
Nalm-6, run: 2, 0.00234 µM | 105
Nalm-6, run: 2, 0.00702 µM | 104
Nalm-6, run: 2, 0.0211 µM | 97.8
Nalm-6, run: 2, 0.0632 µM | 106
Nalm-6, run: 2, 0.19 µM | 101
Nalm-6, run: 2, 0.569 µM | 106
Nalm-6, run: 2, 1.71 µM | 103
Nalm-6, run: 2, 5.12 µM | 103
Nalm-6, run: 2, 15.4 µM | 102
Nalm-6, run: 2, 46.1 µM | 92

COc1ccc2c(c1)CC[C@@H](CN(C)CC(=O)O)[C@H]2c1ccccc1
Details | viability [%]
KB3-1, 0.00078 µM | 102
KB3-1, 0.00234 µM | 111
KB3-1, 0.00702 µM | 104
KB3-1, 0.0211 µM | 99.8
KB3-1, 0.0632 µM | 98
KB3-1, 0.19 µM | 106
KB3-1, 0.569 µM | 110
KB3-1, 1.71 µM | 106
KB3-1, 5.12 µM | 108
KB3-1, 15.4 µM | 106
KB3-1, 46.1 µM | 106
Nalm-6, run: 1, 0.00078 µM | 97.6
Nalm-6, run: 1, 0.00234 µM | 106
Nalm-6, run: 1, 0.00702 µM | 111
Nalm-6, run: 1, 0.0211 µM | 117
Nalm-6, run: 1, 0.0632 µM | 113
Nalm-6, run: 1, 0.19 µM | 103
Nalm-6, run: 1, 0.569 µM | 109
Nalm-6, run: 1, 1.71 µM | 102
Nalm-6, run: 1, 5.12 µM | 111
Nalm-6, run: 1, 15.4 µM | 109
Nalm-6, run: 1, 46.1 µM | 114
Nalm-6, run: 2, 0.00078 µM | 103
Nalm-6, run: 2, 0.00234 µM | 107
Nalm-6, run: 2, 0.00702 µM | 105
Nalm-6, run: 2, 0.0211 µM | 110
Nalm-6, run: 2, 0.0632 µM | 99.9
Nalm-6, run: 2, 0.19 µM | 99.4
Nalm-6, run: 2, 0.569 µM | 102
Nalm-6, run: 2, 1.71 µM | 106
Nalm-6, run: 2, 5.12 µM | 102
Nalm-6, run: 2, 15.4 µM | 102
Nalm-6, run: 2, 46.1 µM | 106

CN(C(=O)c1ccc(F)cc1C(F)(F)F)C1CCN(c2nnc(-c3ccnn3C)c3ccccc23)CC1
Details | viability [%]
KB3-1, 0.00078 µM | 98.1
KB3-1, 0.00234 µM | 94.6
KB3-1, 0.00702 µM | 96.6
KB3-1, 0.0211 µM | 92.8
KB3-1, 0.0632 µM | 93.6
KB3-1, 0.19 µM | 96.7
KB3-1, 0.569 µM | 95.2
KB3-1, 1.71 µM | 87.9
KB3-1, 5.12 µM | 87.2
KB3-1, 15.4 µM | 87.9
KB3-1, 46.1 µM | 69
Nalm-6, run: 1, 0.00078 µM | 96.1
Nalm-6, run: 1, 0.00234 µM | 95.6
Nalm-6, run: 1, 0.00702 µM | 106
Nalm-6, run: 1, 0.0211 µM | 109
Nalm-6, run: 1, 0.0632 µM | 108
Nalm-6, run: 1, 0.19 µM | 116
Nalm-6, run: 1, 0.569 µM | 105
Nalm-6, run: 1, 1.71 µM | 112
Nalm-6, run: 1, 5.12 µM | 101
Nalm-6, run: 1, 15.4 µM | 96.6
Nalm-6, run: 1, 46.1 µM | 31.1
Nalm-6, run: 2, 0.00078 µM | 106
Nalm-6, run: 2, 0.00234 µM | 108
Nalm-6, run: 2, 0.00702 µM | 110
Nalm-6, run: 2, 0.0211 µM | 106
Nalm-6, run: 2, 0.0632 µM | 105
Nalm-6, run: 2, 0.19 µM | 102
Nalm-6, run: 2, 0.569 µM | 108
Nalm-6, run: 2, 1.71 µM | 101
Nalm-6, run: 2, 5.12 µM | 105
Nalm-6, run: 2, 15.4 µM | 106
Nalm-6, run: 2, 46.1 µM | 70.6
